Measured values reported in article PMC4336329 (PLoS ONE, 2015).
Screen size: about 310,000 compounds; about 14,000 (4.5%) showed an effect of 50% or more. Effects have a minus sign here. The list shows a part of the results.

These molecules were tested against human ether-à-go-go-related gene (hERG) potassium channel (human, UniProt Q12809) (assay: primary screen, population patch clamp on CHO cells stably expressing hERG).
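Note: peak tail current of the secondary pulse compared with the same well before compound.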

human ether-à-go-go-related gene (hERG) potassium channel, sequence (Q12809 whole entry, looked up): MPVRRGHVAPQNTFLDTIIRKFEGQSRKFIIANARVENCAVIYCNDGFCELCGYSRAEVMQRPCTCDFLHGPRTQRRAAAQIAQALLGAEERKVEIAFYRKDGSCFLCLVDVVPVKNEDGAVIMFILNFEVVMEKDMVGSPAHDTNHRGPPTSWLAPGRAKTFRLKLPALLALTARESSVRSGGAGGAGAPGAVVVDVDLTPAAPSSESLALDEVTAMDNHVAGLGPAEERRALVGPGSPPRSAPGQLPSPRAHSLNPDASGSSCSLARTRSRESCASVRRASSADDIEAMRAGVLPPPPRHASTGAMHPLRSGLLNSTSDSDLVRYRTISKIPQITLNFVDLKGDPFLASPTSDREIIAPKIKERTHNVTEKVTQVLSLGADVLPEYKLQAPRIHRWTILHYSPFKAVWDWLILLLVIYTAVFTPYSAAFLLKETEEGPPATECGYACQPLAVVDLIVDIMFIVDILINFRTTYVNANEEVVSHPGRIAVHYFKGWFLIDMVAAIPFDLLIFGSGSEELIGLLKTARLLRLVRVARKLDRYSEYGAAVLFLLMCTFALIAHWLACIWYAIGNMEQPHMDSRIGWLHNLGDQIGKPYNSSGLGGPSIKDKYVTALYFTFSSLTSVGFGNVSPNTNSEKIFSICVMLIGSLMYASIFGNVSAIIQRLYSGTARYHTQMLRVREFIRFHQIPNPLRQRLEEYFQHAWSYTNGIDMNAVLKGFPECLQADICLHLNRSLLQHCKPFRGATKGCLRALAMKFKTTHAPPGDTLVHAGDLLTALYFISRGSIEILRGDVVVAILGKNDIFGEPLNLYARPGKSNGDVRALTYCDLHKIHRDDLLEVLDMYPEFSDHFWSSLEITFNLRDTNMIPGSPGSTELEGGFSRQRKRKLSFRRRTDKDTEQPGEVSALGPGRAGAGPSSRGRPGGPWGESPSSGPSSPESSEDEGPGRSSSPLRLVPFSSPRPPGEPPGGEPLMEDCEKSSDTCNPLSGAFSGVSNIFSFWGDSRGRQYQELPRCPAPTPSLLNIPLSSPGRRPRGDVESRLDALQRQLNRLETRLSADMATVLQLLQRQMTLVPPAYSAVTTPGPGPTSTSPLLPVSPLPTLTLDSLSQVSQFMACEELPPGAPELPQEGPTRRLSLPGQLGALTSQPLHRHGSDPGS

Row | SMILES | hERG current change (%, negative = inhibition) at 10uM [%]
1 | COc1ccc(S(=O)(=O)N2CCOCC2)c2ccccc12 | 1.96
2 | CC(C)C(NC(=O)C1CCC(C(C)(C)C)CC1)C(=O)NCCc1ccc(S(N)(=O)=O)cc1 (stereo not shown) | 14.1
3 | Cc1ccc(/C(N)=N/OC(=O)N2CCOCC2)cc1 | -1.21
4 | O=C(/C=C/c1ccccc1)Nc1ccc2c(c1)C(=O)NC2=O | -17.2
5 | Cc1ccc(-c2c[n+](CC(=O)Nc3nc(-c4ccccc4)cs3)c3n2CCC3)cc1.[Cl-] | -54.9
6 | CC1C2CC(C(CN(C)C)/C2=N/O)C1(C)C (stereo not shown) | -9.04
7 | COc1ccc(NC(=O)Cn2cc(C(=O)C3CC3)c3ccccc32)cc1 | 12.9
8 | COc1cccc(C2CC(=O)Nc3cc(OC)c(OC)cc32)c1 (stereo not shown) | -1.86
9 | O=c1[nH]ncc(NCc2ccc(Cl)cc2)c1Cl | 27.4
10 | CCOc1ccc(NC(=O)COc2ccc(C(=O)NCCc3ccccc3)cc2)cc1 | -2.9
11 | COc1ccc(-n2c(C)csc2=S)cc1 | 2.76
12 | CC(=O)COc1cc2c(-c3cc4ccccc4o3)cc(=O)oc2cc1C | 20.6
13 | Cc1ccn2c(=O)c(C(=O)O)cnc2c1 | 17.1
14 | COC(=O)c1ccccc1NC(=O)CSc1nnnn1C1CCCCC1 | -48
15 | CC(=O)c1cccc(NC(=O)c2ccc(-c3ccccc3[N+](=O)[O-])o2)c1 | -17.4
16 | CCCn1nc(C(=O)NCc2ccc3c(c2)OCO3)c2ccccc2c1=O | 1.89
17 | O=C(CSc1ccc(-c2ccccn2)nn1)Nc1ccccc1 | -16.9
18 | CCN(CC)CCn1c2c(c(SCC(=O)Nc3ccc4c(c3)OCCO4)nc1=O)CCCC2 | -20.4
19 | Cn1nccc1NS(=O)(=O)c1ccc(NC(=O)C(F)(F)F)cc1 | -7.34
20 | COc1ccc(S(=O)(=O)N[C@@H](CC(C)C)C(=O)O)cc1 | 9.19
21 | CCOCCCn1cnc2c3cc(F)ccc3n(C)c2c1=O | -22.9
22 | CS(=O)(=O)N1CCN(C(=O)c2ccc(Br)s2)CC1 | -22.6
23 | COc1cccc(-c2nc3c(c(=O)[nH]c(=O)n3Cc3ccccc3)n2CCO)c1OC(F)F | 4.72
24 | COCCOc1ccc(C(F)(F)F)cc1NC(=O)COC(=O)c1cc([N+](=O)[O-])ccc1N1CCOCC1 | 5.55
25 | O=C(O)c1ccc2c(c1)OCCCO2 | 4.27
